Experimental data published in PMC8529494.
No constants are given. Whether binding was seen depends on the method and setting. Binding seen in cells or lysates may run through a third protein. Some entries that bind do so weakly or less than the wild type.

Sequences of proteins named here, by UniProt entry; tags and fusion partners are left off. A change or cut given only in a name is not applied to a line headed by its entry. A line that says so, or that is headed by a name, gives the form on record, which may keep a tag or linker.
UniProt Q92794: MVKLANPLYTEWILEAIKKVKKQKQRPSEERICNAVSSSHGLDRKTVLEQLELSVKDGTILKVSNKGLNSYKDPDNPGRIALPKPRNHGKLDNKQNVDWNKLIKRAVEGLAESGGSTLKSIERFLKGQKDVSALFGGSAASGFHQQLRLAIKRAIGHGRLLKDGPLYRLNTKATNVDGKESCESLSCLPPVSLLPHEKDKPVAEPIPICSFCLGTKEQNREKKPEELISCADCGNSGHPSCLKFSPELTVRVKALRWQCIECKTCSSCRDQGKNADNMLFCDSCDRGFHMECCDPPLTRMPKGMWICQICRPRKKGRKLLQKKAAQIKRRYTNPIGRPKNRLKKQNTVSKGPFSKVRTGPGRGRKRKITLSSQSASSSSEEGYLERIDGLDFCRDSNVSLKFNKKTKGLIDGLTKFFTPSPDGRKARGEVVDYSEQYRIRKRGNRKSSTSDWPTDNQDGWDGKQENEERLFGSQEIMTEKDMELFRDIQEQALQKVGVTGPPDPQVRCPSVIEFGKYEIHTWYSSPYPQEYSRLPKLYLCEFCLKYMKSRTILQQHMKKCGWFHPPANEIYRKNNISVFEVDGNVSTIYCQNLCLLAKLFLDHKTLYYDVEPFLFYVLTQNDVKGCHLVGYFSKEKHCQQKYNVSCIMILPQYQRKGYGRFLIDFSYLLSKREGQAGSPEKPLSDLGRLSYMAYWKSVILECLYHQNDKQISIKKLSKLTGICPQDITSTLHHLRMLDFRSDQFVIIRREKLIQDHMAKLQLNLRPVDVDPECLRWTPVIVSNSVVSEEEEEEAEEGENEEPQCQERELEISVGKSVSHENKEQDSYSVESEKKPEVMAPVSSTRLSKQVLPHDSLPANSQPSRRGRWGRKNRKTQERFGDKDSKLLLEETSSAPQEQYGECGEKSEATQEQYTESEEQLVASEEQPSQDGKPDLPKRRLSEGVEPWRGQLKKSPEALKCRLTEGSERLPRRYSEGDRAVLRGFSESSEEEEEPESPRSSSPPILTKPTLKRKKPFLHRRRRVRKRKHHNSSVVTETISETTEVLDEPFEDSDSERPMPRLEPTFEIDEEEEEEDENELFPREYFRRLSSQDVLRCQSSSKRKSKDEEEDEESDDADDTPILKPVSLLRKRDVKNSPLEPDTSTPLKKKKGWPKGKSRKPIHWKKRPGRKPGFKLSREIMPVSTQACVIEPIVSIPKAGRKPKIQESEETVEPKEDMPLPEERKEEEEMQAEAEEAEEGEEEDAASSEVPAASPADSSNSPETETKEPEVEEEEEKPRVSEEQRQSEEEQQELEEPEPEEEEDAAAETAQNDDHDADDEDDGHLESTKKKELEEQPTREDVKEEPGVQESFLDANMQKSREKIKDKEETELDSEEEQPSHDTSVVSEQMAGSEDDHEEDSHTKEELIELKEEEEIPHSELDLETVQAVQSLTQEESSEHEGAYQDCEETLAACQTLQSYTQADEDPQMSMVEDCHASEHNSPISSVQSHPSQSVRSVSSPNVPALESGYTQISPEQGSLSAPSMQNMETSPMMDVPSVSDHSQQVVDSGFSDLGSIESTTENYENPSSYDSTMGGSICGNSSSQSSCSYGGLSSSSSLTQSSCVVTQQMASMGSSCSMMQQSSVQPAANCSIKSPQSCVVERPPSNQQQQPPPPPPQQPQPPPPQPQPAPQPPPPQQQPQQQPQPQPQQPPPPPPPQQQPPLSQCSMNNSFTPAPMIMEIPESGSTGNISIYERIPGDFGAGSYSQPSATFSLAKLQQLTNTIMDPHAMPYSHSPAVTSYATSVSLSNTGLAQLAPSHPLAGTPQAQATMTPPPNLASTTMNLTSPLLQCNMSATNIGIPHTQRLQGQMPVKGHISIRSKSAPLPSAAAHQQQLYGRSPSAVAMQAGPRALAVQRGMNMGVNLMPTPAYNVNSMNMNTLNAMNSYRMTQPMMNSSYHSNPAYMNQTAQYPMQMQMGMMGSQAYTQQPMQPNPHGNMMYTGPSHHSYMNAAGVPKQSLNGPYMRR
UniProt P84022: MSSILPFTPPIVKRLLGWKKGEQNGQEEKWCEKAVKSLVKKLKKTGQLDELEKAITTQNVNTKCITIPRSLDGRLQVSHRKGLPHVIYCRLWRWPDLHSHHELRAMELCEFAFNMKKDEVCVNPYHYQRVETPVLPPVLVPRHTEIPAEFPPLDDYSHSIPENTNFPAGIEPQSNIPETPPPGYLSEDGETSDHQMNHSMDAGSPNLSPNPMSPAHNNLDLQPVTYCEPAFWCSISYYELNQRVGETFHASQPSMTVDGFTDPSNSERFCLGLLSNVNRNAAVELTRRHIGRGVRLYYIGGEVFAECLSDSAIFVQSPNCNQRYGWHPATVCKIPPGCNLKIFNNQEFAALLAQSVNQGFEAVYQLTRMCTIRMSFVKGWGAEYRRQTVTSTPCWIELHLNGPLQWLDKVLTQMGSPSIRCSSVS
SMAD3 K20/117Q, acetylation-mimetic mutant, in HEK293T cells (P84022, form named): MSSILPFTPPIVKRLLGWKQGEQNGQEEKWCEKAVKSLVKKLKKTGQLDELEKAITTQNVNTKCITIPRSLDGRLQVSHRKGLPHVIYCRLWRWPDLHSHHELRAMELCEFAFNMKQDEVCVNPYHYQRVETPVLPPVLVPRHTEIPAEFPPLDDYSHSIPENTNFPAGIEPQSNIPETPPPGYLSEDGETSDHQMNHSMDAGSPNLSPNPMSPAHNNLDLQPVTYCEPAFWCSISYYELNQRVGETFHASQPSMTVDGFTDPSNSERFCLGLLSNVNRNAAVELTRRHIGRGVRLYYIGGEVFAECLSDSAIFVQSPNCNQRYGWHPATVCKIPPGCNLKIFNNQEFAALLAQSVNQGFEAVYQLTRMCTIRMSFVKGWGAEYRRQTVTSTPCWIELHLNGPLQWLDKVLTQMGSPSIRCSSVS
SMAD3 K20/117R, acetylation-deficient mutant, in HEK293T cells (P84022, form named): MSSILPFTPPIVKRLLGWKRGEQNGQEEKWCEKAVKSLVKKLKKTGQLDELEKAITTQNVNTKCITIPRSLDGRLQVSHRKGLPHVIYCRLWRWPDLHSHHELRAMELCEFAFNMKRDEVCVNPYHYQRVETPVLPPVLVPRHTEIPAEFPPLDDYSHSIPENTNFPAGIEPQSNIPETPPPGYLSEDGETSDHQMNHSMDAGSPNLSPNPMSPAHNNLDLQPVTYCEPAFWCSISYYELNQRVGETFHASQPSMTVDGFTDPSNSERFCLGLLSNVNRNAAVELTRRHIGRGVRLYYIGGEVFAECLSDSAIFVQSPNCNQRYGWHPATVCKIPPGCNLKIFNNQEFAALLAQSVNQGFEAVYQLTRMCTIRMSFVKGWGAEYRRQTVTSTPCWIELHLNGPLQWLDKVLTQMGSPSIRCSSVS

Tests used:
[1] = biological target: KAT6A, exogenous, in HEK293T cells (UniProt Q92794); test: co-IP; IP and western blot of HEK293T cells coexpressing KAT6A and SMAD3 WT or mutants (Figure 2B, F, M)
GST-KAT6A = GST-KAT6A (UniProt Q92794); test: pull-down; purified GST-KAT6A or GST incubated with cell extracts from MDA-MB-231 cells stimulated with or without TGF-β1 (5 ng/mL, 2 h); only the target purified
[2] = biological target: KAT6A, endogenous (human (endogenous in MDA-MB-231)) (UniProt Q92794); test: co-IP; endogenous KAT6A and SMAD3 in MDA-MB-231 cells (Figure 2C)

binding [1]	binding (GST-KAT6A)	binding [2]	Substance
binds	–	–	SMAD3 K20/117Q, acetylation-mimetic mutant, in HEK293T cells (from UniProt P84022 1-425)
binds	–	–	SMAD3 K20/117R, acetylation-deficient mutant, in HEK293T cells (from UniProt P84022 1-425)
binds	–	–	SMAD3 wild type, exogenous, in HEK293T cells (from UniProt P84022 1-425)
–	binds	binds	SMAD3, endogenous (from UniProt P84022 1-425)
